Changes are numbered by the printed parent chain. Names may count otherwise. These are yes or no findings as the source states them, for the method shown. For some of these results: In cells and extracts the contact can be indirect. Some binding calls cover weakened binding; strength is not graded here. Tags and fused reporters may be left off the sequences shown. One block for each binder: values may come before it.
How the values were obtained:
[1] = biological target: T1, NLP I62E, V5-tagged (Drosophila) (UniProt Q27415); test: co-IP; S2 cells co-transfected with V5- and HA-tagged constructs; nuclear lysate with Benzonase, 300 mM then 150 mM NaCl, 0.5% IGEPAL CA-630; rabbit anti-V5 antibody and Protein A Dynabeads; western blot with anti-V5 and anti-HA
T1 sequence: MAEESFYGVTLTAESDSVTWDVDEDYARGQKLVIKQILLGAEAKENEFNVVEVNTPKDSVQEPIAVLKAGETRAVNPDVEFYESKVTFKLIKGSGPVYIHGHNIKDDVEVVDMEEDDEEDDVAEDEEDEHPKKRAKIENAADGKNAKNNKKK

[2] = biological target: T2, NLP F6E, V5-tagged (Drosophila) (UniProt Q27415); test: as above
T2 sequence: T1 sequence with F6E, E62I

[3] = biological target: T3, NLP V79E, V5-tagged (Drosophila) (UniProt Q27415); test: as above
T3 sequence: T1 sequence with E62I, V79E

[4] = biological target: T4, Nucleoplasmin-Like Protein, V5-tagged (NLP-V5) (Drosophila) (UniProt Q27415); test: as above
T4 sequence: T1 sequence with E62I

[5] = biological target: T5, NLP F6E/I62E/V79E triple mutant, V5-tagged (Drosophila) (UniProt Q27415); test: as above
T5 sequence: T1 sequence with F6E, V79E

[6] = biological target: T4, Nucleoplasmin-Like Protein, V5-tagged (NLP-V5) (Drosophila); test: SDS-PAGE and western blot of a thermostable high-molecular weight species; proteins overexpressed in S2 cells, western blot (Supplementary Figure S1B)
[7] = biological target: T6, NLP N76R, V5-tagged (Drosophila) (UniProt Q27415); test: co-IP; S2 cells co-transfected with V5- and HA-tagged constructs; nuclear lysate with Benzonase, 300 mM then 150 mM NaCl, 0.5% IGEPAL CA-630; rabbit anti-V5 antibody and Protein A Dynabeads; western blot with anti-V5 and anti-HA
T6 sequence: T1 sequence with E62I, N76R

binding [1]: binds weakly
binding [2]: no binding
binding [3]: no binding
binding [4]: binds
binding [5]: no binding
B1: Nucleoplasmin-Like Protein, HA-tagged (NLP-HA) (protein, UniProt Q27415 1-152)
chain: T1 sequence with E62I

binding [6]: binds
B2: Nucleoplasmin-Like Protein, V5-tagged (NLP-V5) (protein, UniProt Q27415 1-152)
chain: T1 sequence with E62I

binding [7]: binds
B3: NLP N76R, HA-tagged (protein, UniProt Q27415 1-152)
chain: T1 sequence with E62I, N76R
